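Interpolation was linear, between the two tested concentrations surrounding the appropriate level; five concentrations were tested over 48 hours in 96-well plates. GI50 marks 50% less growth.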 The source made the active and inactive calls. Rule as the data show it: active = GI50 up to about 1.1 µM and inactive = higher. A value given as a limit tells only on which side of the number the result lay.

The values that follow come from ChEMBL document CHEMBL1201862, “PubChem BioAssay data set” (2004).

This assay relates to NCI-H322M. Briefly: inhibition of tumour cell growth, NCI panel, 48 h.
Consider `COc1c(-c2ccc(F)cc2)oc2c(CC(=O)O)cccc2c1=O`, for which the GI50 was inactive: > 100 µM.

On to `N=C(N)NC(=N)Nc1ccc(S(=O)(=O)O)cc1`, for which the GI50 is inactive: > 100 µM.

With `O=C(/C=C/c1ccc(O)c(O)c1)OCCc1ccc2ccccc2c1`, the GI50 was inactive: 11.9 µM.

In the case of `O=C(O)CSc1ccccc1C(=O)O`, the GI50 was inactive: > 100 µM.

Take `C[N+](C)(C)/N=C\c1ccc(O)c(O)c1`: the GI50 was inactive: > 100 µM.

`Cc1ccc(NC(S)=Nc2c(C)n(C)n(-c3ccccc3)c2=O)cc1`: the GI50 is inactive: > 100 µM.

On to `C=C1C(=O)O[C@@H]2C[C@@H](C)[C@@H]3C=CC(=O)[C@@]3(C)[C@@H](OC(=O)CC(=O)O[C@H]3[C@@H]4C(=C)C(=O)O[C@@H]4C[C@@H](C)[C@@H]4C=CC(=O)[C@]43C)[C@H]12`, for which the GI50 was active: 0.259 µM.

Take `Clc1cccc(Cl)c1C(Nc1nncs1)Nc1nncs1`: the GI50 was inactive: 27.2 µM.

As for `CC1(CCC(=O)OC2CCCCC2)OCCO1`, the GI50 was inactive: > 100 µM.

With `COc1cc2cc(C(=O)N3CC(COS(C)(=O)=O)c4c3cc([N+](=O)[O-])c3ccccc43)[nH]c2c(OC)c1OC` (configuration not stated), the GI50 was inactive: > 46.6 µM.

`Oc1ccc(Cc2cc(Cc3ccc(O)cc3)cc(Cc3ccc(O)cc3)c2)cc1`: the GI50 is inactive: > 50 µM.

For `COc1cccc(NC(=O)CC(=O)N2NC(C)C(/N=N/c3cccc(C(=O)O)c3)C2=O)c1` (configuration not stated), the GI50 is inactive: > 100 µM.

Turning to `CC(C)(CN)SCc1ccccc1`, the GI50 is inactive: > 100 µM.

For the molecule `CC1=NN(c2ccc(C)cc2)C2(C1)SCC(=O)N2c1nc2ccccc2s1` (configuration not stated), the GI50 was inactive: 22.1 µM.

Consider `COc1cccc(C2C(C(=O)Nc3cc(=O)n(C)c(=O)n3C)=C(C)NC(C)=C2C(=O)Nc2cc(=O)n(C)c(=O)n2C)c1O`, for which the GI50 is inactive: > 100 µM.

For the molecule `Clc1nc2c(-c3cccs3)ncnc2n1Cc1ccccc1`, the GI50 is inactive: 2.15 µM.

For `O=C1O/C(=C(\Br)c2cccc3ccccc23)c2ccccc21`, the GI50 was inactive: > 34.1 µM.

With `C[C@]12CC[C@H]3[C@@H](CCC4=CC(=O)CC[C@@]43C)[C@@H]1CC[C@@H]2C(=O)Nc1ccc([N+](=O)[O-])c(C(F)(F)F)c1`, the GI50 was inactive: 18.1 µM.

As for `CCOC(=O)/C=C/c1ccccn1`, the GI50 is inactive: > 100 µM.

Regarding `COc1ccc(CNc2cc(=O)n(C)c(=O)[nH]2)cc1`, the GI50 is inactive: > 100 µM.

Regarding `COc1cc2c(cc1OC)C1CN3C(=O)CCC3C(O)C1c1cc(OC)c(OC)cc1-2` (configuration not stated), the GI50 is inactive: > 100 µM.

As to `N#CC1(C#N)C2C=CC(C3CC=CC32)C1(C#N)C#N` (configuration not stated), the GI50 was inactive: > 10 µM.

Turning to `NC(=O)C(=O)C(c1ccccc1)S(=O)(=O)Cc1ccccc1` (configuration not stated), the GI50 is inactive: > 100 µM.

Turning to `CCOC1c2cc(OC)c(OC)cc2-c2ccc3ccccc3c2N1C` (configuration not stated), the GI50 is inactive: 16.5 µM.

Take `COc1ccccc1N1C(=O)/C(=C\c2ccccc2)SC1c1cc(OC)c(OC)c(OC)c1` (configuration not stated): the GI50 was inactive: 32.6 µM.

With `NC(=S)NS(=O)(=O)c1ccc(F)cc1`, the GI50 is inactive: > 100 µM.

On to `COC(=O)c1sc2c(c1C(=O)OC)/C(=N/c1ccc(OC)cc1)S/C2=N\c1ccc(OC)cc1`, for which the GI50 was inactive: 1.6 µM.

For `O=S1(=O)c2ccccc2NC(c2ccc3ccccc3c2)CC1c1ccccc1F` (configuration not stated), the GI50 is inactive: > 100 µM.

`c1ccc([P+](Cc2csnn2)(c2ccccc2)c2ccccc2)cc1`: the GI50 is inactive: > 100 µM.

Regarding `NCC(=O)N1CCN(c2nc(N3CCCC3)c3nc(Cl)c(NCc4ccccc4)nc3n2)CC1`, the GI50 is inactive: 1.74 µM.

As to `Cc1cc2c(cc1C)[n+]([O-])c(C(=O)/C=C/c1ccc3c(c1)OCO3)c(C)[n+]2[O-]`, the GI50 was inactive: 53.3 µM.

Consider `O=C(Nc1ccc(Cl)cc1)/C(Cc1cccc[n+]1[O-])=N\Nc1ccc([N+](=O)[O-])cc1[N+](=O)[O-]`, for which the GI50 is inactive: > 100 µM.

In the case of `O=C(O)C1C2C=CC(O2)C1C(=O)NCc1ccncc1` (configuration not stated), the GI50 is inactive: > 100 µM.

For `CCOCC(=O)N(C)c1cccc2c3c(n(C)c12)CCCCC3`, the GI50 was inactive: > 100 µM.

Consider `CC(C(=O)ON1C(=O)CCC1=O)c1ccc(C(=O)c2ccccc2)s1` (configuration not stated), for which the GI50 is inactive: > 100 µM.

For the molecule `OC1C2CN3CCN(C2)CC1(c1ccccc1)C3` (configuration not stated), the GI50 is inactive: > 100 µM.

As for `CN(CN1C(=O)C2Cc3ccccc3CN2C1=O)c1ccccn1` (configuration not stated), the GI50 is inactive: > 100 µM.

`Cc1cc(O)nc(CNC(=O)c2cccc(C(=O)NCc3cc(O)nc(C)n3)c2)n1`: the GI50 was inactive: > 100 µM.

Turning to `Cc1ccc2c(c1)[nH]c(=S)n2/C=C1\C(=O)Oc2ccccc2C1=O`, the GI50 was inactive: 94.2 µM.

On to `CCOC(=O)c1c(-c2ccc(OC)cc2)c(C#N)c(=S)n(C2OC(COC(C)=O)C(OC(C)=O)C(OC(C)=O)C2OC(C)=O)c1-c1ccccc1` (configuration not stated), for which the GI50 was inactive: > 100 µM.

For the molecule `O=Cc1cccc2c1Oc1c(cccc1C(=O)O)S2`, the GI50 is inactive: 50.5 µM.

On to `C(=N\OCCc1ccccc1)/c1cccnc1`, for which the GI50 was inactive: > 100 µM.

`O=C(O)C(CS)NCc1c2ccccc2[n+]([O-])c2ccccc12` (configuration not stated): the GI50 is inactive: 28.6 µM.

In the case of `O=C1/C(=C/c2ccc(Br)s2)NC(=S)N1c1ccccc1`, the GI50 was inactive: 64.1 µM.

`CCOC(=O)NN(C(=O)OCC)c1ccc(/N=N/c2ccc(OC)cc2)n1C`: the GI50 is inactive: 35 µM.

As to `N#Cc1nc(C2=C(Cl)c3ccccc3OC2)[nH]c1C#N`, the GI50 was inactive: 24.7 µM.

For the molecule `C[Si](C)(C)/C=C\CCO`, the GI50 was inactive: > 100 µM.

For the molecule `COc1ccc(CC2c3cc(OC)c(OC)c(OC)c3CC[N+]2(C)C)cc1Oc1ccc(CC2c3cc4c(c(OC)c3CCN2C)OCO4)cc1` (configuration not stated), the GI50 is inactive: > 100 µM.

`CCc1[nH]c(=O)nc(N)c1-c1ccc(N2CCCCC2)c([N+](=O)[O-])c1`: the GI50 was inactive: > 100 µM.

As to `O=c1c2ccccc2nc(N/N=C/c2ccccc2O)n1-c1ccccc1`, the GI50 is inactive: 6.05 µM.

With `COc1nc2c(c(=O)[nH]1)N=C(c1ccccc1)CC(c1ccccc1)N2` (configuration not stated), the GI50 is inactive: 83.2 µM.

Consider `Nc1cc2ncnc(Nc3cccc(Br)c3)c2cn1`, for which the GI50 was inactive: 4.48 µM.

Take `Cc1cc2nc(-c3cc(C(C)(C)C)c(O)c(C(C)(C)C)c3)[nH]c2cc1C`: the GI50 is inactive: > 28.8 µM.

With `CO/N=C(\C(=O)Nc1cncs1)c1csc(N)n1`, the GI50 is inactive: > 10 µM.

Regarding `CCOC(=O)C#Cc1ccccc1`, the GI50 is inactive: 17.6 µM.

Consider `CNC(=O)Nc1cc2c3c(c1)CCCN3CCC2`, for which the GI50 is inactive: > 10 µM.

With `COC(=O)c1ccc(/C=C2\CCc3ccccc3C2=O)cc1`, the GI50 was inactive: > 100 µM.

Take `CCO/C=N/C1=C(C#N)C(c2ccc(OC)c(OC)c2)c2c(-c3ccccc3)nn(-c3ccccc3)c2O1` (configuration not stated): the GI50 was inactive: 19.9 µM.

Consider `CCCCCCCCCC1CC(=O)OC2=C1C(=O)CCC2` (configuration not stated), for which the GI50 was inactive: > 100 µM.

Regarding `CSc1nc(NC2OCC(O)C(O)C2O)c(N)c(=O)n1C` (configuration not stated), the GI50 is inactive: > 100 µM.

Regarding `FC(F)(F)c1ccc2nc(NCc3ccccc3)c(-c3ccccc3)nc2c1`, the GI50 is inactive: 51.4 µM.

As to `Cc1ccc(NC(=O)NC23CC4CC(CC(F)(C4)C2)C3)cc1`, the GI50 is inactive: > 100 µM.

Consider `C#CCn1c(=O)c2cccnc2n(CC#C)c1=O`, for which the GI50 was inactive: > 100 µM.

In the case of `NCCCN(CCCN)CCCNCc1c2ccccc2c(CNCCCN(CCCN)CCCN)c2ccccc12`, the GI50 was inactive: 13.2 µM.

As for `O=C1/C(=C\c2ccc([N+](=O)[O-])cc2)N(S(=O)(=O)c2ccccc2)c2ncccc21`, the GI50 is inactive: 41.4 µM.

On to `O=[N+]([O-])c1ccc(Cl)c(C2CC(c3cccc4ccccc34)=Nc3ccccc3S2)c1` (configuration not stated), for which the GI50 was inactive: 50.4 µM.

Take `CC(=O)NCCC1CN(C(=O)/C=C\C#C[Si](C)(C)C)c2ccccc21` (configuration not stated): the GI50 is inactive: 30.2 µM.

Regarding `C=CC[P@]1(=O)O[C@H](c2ccccc2)[C@H](C)N1C`, the GI50 was inactive: > 100 µM.

As to `COC(=O)CCC(NC(=O)OC(C)(C)C)C(=O)NC(Cc1ccc(NC(=O)CCCC(C)=O)cc1)C(=O)NC(CCC(=O)OC)C(=O)OC` (configuration not stated), the GI50 was inactive: > 100 µM.

As for `CCCCCCCCOCC(COC(=O)CCCCCCC)OC(=O)CCCCCCC` (configuration not stated), the GI50 was inactive: > 100 µM.

With `COc1c(N2CCCCC2)c2c(=O)c3ccccc3oc2c2c3ccccc3n(C)c12`, the GI50 is inactive: > 100 µM.

Consider `COC(=O)/C=C\C(C#N)(C#N)/N=C/c1ccc(C)cc1`, for which the GI50 is inactive: 19.8 µM.

As to `COc1ccc(C(c2c(O)c3ccccc3n(C)c2=O)c2c(O)c3ccccc3n(C)c2=O)cc1`, the GI50 was inactive: 86.5 µM.

For the molecule `Cc1ccc(/N=N/c2c(O)ccc3cc(S(=O)(=O)O)cc(S(=O)(=O)O)c23)cc1`, the GI50 was inactive: > 100 µM.

As for `CCCCCCCCCCCCC(Br)C(=O)SCCNC(=O)CCNC(=O)[C@@H](O)C(C)(C)COP(=O)(O)OP(=O)(O)OCC1OC(n2cnc3c(N)ncnc32)C(O)C1OP(=O)(O)O` (some centres not stated), the GI50 was inactive: > 56.5 µM.

As to `O=c1ccc(-c2ccc(-n3ccnc3)cc2)nn1CCO`, the GI50 was inactive: > 100 µM.

On to `Nc1c2c(nc3ccccc13)-c1ccccc1CCC2`, for which the GI50 is inactive: 15 µM.

For `CC(CC(C)[C@H]1CCC2[C@H]3C(CC(=O)[C@@]21C)[C@@]1(C)CCC(O)C[C@H]1C[C@@H]3O)C(=O)O` (some centres not stated), the GI50 was inactive: > 100 µM.

`Cc1ncc([N+](=O)[O-])n1CCNC(=O)Cn1ccnc1[N+](=O)[O-]`: the GI50 is inactive: > 100 µM.

Take `COc1cc2c(cc1OCCCCOc1cc3c(cc1OC)C(=O)N1CCC[C@H]1C(=O)N3)N=C[C@@H]1CCCN1C2=O`: the GI50 was inactive: 16 µM.

With `c1ccc2nc(-c3ccc4c(c3)OCO4)ccc2c1`, the GI50 was inactive: 55.8 µM.

As to `COc1ccc(-c2nnc3n(C)c4ccccc4n3c2=O)cc1`, the GI50 was inactive: > 100 µM.
